Measured values taken from PubChem BioAssay AID588453 (National Center for Advancing Translational Sciences (NCATS), 2011).
Hit rate of the full screen: of about 390,000 compounds, about 4,000 (1%) were called active. The inconclusive results got no clear call from the source; some entries with a clear call stand among them for comparison. Calls follow the shape of the dose curve; as a rule, active = well fitted inhibition curve with a large enough effect; inconclusive = small, poorly fitted or top-dose-only effect; inactive = no such curve, though single readings can be large or run the other way. Potencies beside an inconclusive call are fits to weak or partial responses and may not hold up.

target: Thioredoxin reductase 1, cytoplasmic (Rattus norvegicus) (UniProt O89049); assay: qHTS Assay for Inhibitors of Mammalian Selenoprotein Thioredoxin Reductase 1 (TrxR1): qHTS; conditions: recombinant rTrxR1, NADPH fluorescence consumption, selenite substrate; series mostly up to 114 µM; also: nearly all actives have a fitted effect of over 65% in size
UniProt O89049, sequence (O89049 whole entry, looked up): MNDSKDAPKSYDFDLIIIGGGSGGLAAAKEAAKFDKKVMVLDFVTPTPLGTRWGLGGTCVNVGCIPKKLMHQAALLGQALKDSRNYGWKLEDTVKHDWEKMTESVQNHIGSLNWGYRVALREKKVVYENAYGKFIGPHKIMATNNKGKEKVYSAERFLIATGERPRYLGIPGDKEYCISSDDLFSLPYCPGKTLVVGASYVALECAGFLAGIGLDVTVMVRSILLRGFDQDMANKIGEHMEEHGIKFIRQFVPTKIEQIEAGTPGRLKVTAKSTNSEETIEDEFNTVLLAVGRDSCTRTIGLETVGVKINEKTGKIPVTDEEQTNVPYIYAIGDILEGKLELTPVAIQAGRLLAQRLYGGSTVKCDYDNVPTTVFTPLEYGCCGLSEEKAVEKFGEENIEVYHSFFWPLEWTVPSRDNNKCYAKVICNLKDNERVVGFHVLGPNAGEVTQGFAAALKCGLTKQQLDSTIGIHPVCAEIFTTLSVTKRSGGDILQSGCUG
In short: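 Rat TrxR1 (90 nM in the dispensed reagent) was pre-reduced with 400 uM NADPH for 5 min at room temperature, then incubated with compound for 15 min. After 400 uM selenite was added, NADPH fluorescence (Ex 340/Em 450 nm) was followed for 8 min.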
% is scaled to controls: 0 for no effect and ±100 for the full control effect; potency is read from the fitted curve at half-maximal effect; tags tell the direction and shape of the fitted curve.

Row | SMILES | Potency | activity change, negative = inhibition
1 | C=C1CCN(C(CC(C)C)C(=O)O)S(=O)(=O)c2ccccc21 (stereo not drawn) | inconclusive: 28.2 µM [inhibitor, single point] | 
2 | COc1cccc(/C=C2\C(=O)N(c3cccc(C)c3)C(=O)c3ccccc32)c1 | inconclusive: 22.4 µM [inhibitor, partial curve, poor fit] | 
3 | O=C(Oc1ccc(=O)n(-c2ccccc2)n1)c1ccccc1 | inconclusive: 39.8 µM [inhibitor, single point] | 
4 | O=C(CSc1ccsc1[N+](=O)[O-])Nc1cc(F)ccc1F | inconclusive: 56.2 µM [inhibitor, single point] | 
5 | Cc1cccc(NC(=O)CSc2nnc(-c3ccco3)c(-c3ccco3)n2)c1 | active: 8.91 µM | 
6 | Oc1[nH]c2ccccc2c1N=Nc1c(F)c(F)c(F)c(F)c1F | inconclusive: 22.4 µM [inhibitor, full curve, poor fit] | 
7 | CCOC(CNC(=O)C(=O)NCC(c1ccco1)N1CCN(c2ccc(OC)cc2)CC1)OCC (stereo not drawn) | inconclusive: 79.4 µM [inhibitor, single point] | 
8 | COCCNC(=O)/C(C#N)=C/c1cccc(OCc2ccccc2)c1 | inconclusive: 79.4 µM [inhibitor, single point] | 
9 | COc1cc(C2NC(=O)NC(O)(C(F)(F)F)C2C(=O)c2cccs2)ccc1O (stereo not drawn) | inconclusive: 44.7 µM [inhibitor, partial curve] | 
10 | CCCCC1CCC(C(=O)OC(C)C(=O)Nc2ccc(NC(C)=O)cc2)CC1 (stereo not drawn) | inactive | 
11 | COC(=O)c1ccccc1NC(=O)c1cc(-c2ccc(Cl)cc2)on1 | inactive | 
12 | Cc1cc(C(=O)CSc2nnc(CCC(N)=O)n2C)c(C)n1C1CC1 | inconclusive: 56.2 µM [inhibitor, partial curve] | 
13 | CC(=O)c1cccc2c(O)c(C3=Nc4ccccc4C3=O)[nH]c12 | inconclusive: 22.4 µM [inhibitor, single point] | 
14 | Cc1ccc(NC2=C(NC(=O)c3ccccc3)C(=O)c3ccccc3C2=O)cc1Cl | active: 1.58 µM | 
15 | COCCNC(=S)NNC(=O)c1cc(-c2cccnc2)nc2ccccc12 | inconclusive: 50.1 µM [inhibitor, partial curve, poor fit] | 
16 | Cc1ccc(CNC(=O)Nc2ccccc2)n1C | inconclusive: 28.2 µM [inhibitor, partial curve, poor fit] | 
17 | CCOC(=O)N1CCN(Cc2nc3ccc([N+](=O)[O-])cc3c(=O)n2-c2ccccc2F)CC1 | inconclusive: 50.1 µM [inhibitor, partial curve, poor fit] | 
18 | Cc1ccc(/C=N/Nc2nc(C(C)(C)C)cs2)o1 | inconclusive: 79.4 µM [inhibitor, single point] | 
19 | CCc1ccc(C2CC(c3ccco3)=NN2S(C)(=O)=O)cc1 (stereo not drawn) | inconclusive: 56.2 µM [inhibitor, single point] | 
20 | CC(C)c1ccc(NC2CCCN(C(=O)c3ccsc3)C2)cc1 (stereo not drawn) | inactive | 
21 | CN(C)CCN(Cc1ccccc1)S(=O)(=O)c1ccc(-c2cc(C(F)(F)F)on2)s1 | inactive | 
22 | Cc1ccc(C)c(/C(O)=C2\C(=O)C(=O)N(CCCn3ccnc3)C2c2ccncc2)c1 (stereo not drawn) | inconclusive: 28.2 µM [inhibitor, single point] | 
23 | CCOC(=O)C1=C(O)/C(=C/c2ccc(-c3ccccc3C(=O)O)o2)SC1=Nc1ccc(C)cc1 | inconclusive: 8.91 µM [inhibitor, partial curve, poor fit] | 

Row | SMILES | Potency | activity change, negative = inhibition
24 | Cc1cc(O)c(C(c2ccc(Cl)cc2)N2CCN(c3ccccc3)CC2)c(=O)n1Cc1ccco1 (stereo not drawn) | inconclusive: 8.91 µM [inhibitor, partial curve, poor fit] | 
25 | Cc1ccc(S(=O)(=O)N=Nc2c(O)[nH]c3ccccc23)cc1 | inactive | 
26 | COc1ccc(-c2cccc(NC(=O)c3ccco3)c2)nn1 | inconclusive: 79.4 µM [inhibitor, single point] | 
27 | Cc1ccc(NC(=O)N/C=C/c2ccco2)cc1C | inconclusive: 44.7 µM [inhibitor, partial curve] | 
28 | CCOC(=O)c1[nH]cc(-c2ccccc2)c1N1CCOCC1 | inconclusive: 56.2 µM [inhibitor, partial curve, poor fit] | 
29 | Cc1oc(-c2ccc(C(=O)NC(C)c3ccccc3)cc2)nc1CS(=O)(=O)c1ccccc1 (stereo not drawn) | inactive | 
30 | C=CCCC1CN(Cc2ccco2)S(=O)(=O)c2c(F)cccc2O1 (stereo not drawn) | active: 39.8 µM | 
31 | COc1cc(NC(=S)Nc2cccc(C)n2)cc(OC)c1OC | inconclusive: 89.1 µM [inhibitor, single point] | 
32 | O=S(=O)(c1ccc(Br)s1)N1CCN(c2ccc(F)cc2)CC1 | inconclusive: 79.4 µM [inhibitor, single point] | 
33 | Cc1ccc(/C=N/NC(=S)NC(C)C)o1 | inconclusive: 15.8 µM [inhibitor, full curve, poor fit] | 
34 | COc1ccc(OC)c(-c2noc(N3CCN(c4ccc(C(C)=O)cc4)CC3)n2)c1 | inactive | 
35 | COc1ccc(C(=O)Nc2nnc(-c3cccs3)s2)cc1 | inactive | 
36 | CC1CCCCN1CCCNC(=O)CN1C(=O)CSc2ccc(S(=O)(=O)N3CCOCC3)cc21 (stereo not drawn) | inconclusive: 39.8 µM [inhibitor, single point] | 
37 | Cc1ccc(S(=O)(=O)Nc2ccc(O)c3ccccc23)c(C)c1 | inconclusive: 28.2 µM [inhibitor, single point] | 
38 | O=C(CCC(=O)c1ccc(Oc2ccccc2)cc1)Nc1ccc(Cl)cc1Cl | inactive | 
39 | CCCCOc1ccc(/C(O)=C2/C(=O)C(=O)N(CCN(C)C)C2c2ccc(O)c(OC)c2)cc1 (stereo not drawn) | inconclusive: 35.5 µM [inhibitor, partial curve, poor fit] | 
40 | CC(=O)c1ccc(OCc2cc(C(=O)N3CC[C@@H]4CCCC[C@H]4C3)no2)cc1 | active: 25.1 µM | 
41 | COc1ccc2c(c1OC)C(=O)N1N=C(c3ccc(O)cc3)CC21 (stereo not drawn) | inconclusive: 79.4 µM [inhibitor, partial curve, poor fit] | 
42 | Cc1ccc(NC(=O)c2ccc(NCCCN3CCC(C)CC3)c([N+](=O)[O-])c2)cc1F | inactive | 
43 | CCOc1ccc(-c2nnc(-c3ccncc3)o2)cc1 | inactive | 
44 | N=C1/C(=C\c2ccc(SCc3ccco3)o2)C(=O)N=C2SC=NN12 | inconclusive: 79.4 µM [inhibitor, single point] | 
45 | Cc1ccc(/C=c2\sc3nc(-c4ccccc4Br)nn3c2=O)o1 | inconclusive: 39.8 µM [inhibitor, single point] | 
46 | CC1CC2C(C(O)CC3(C)C2CCC3(O)C(=O)CO)C2(C)C=CC(=O)C=C12 (stereo not drawn) | inactive | 

Row | SMILES | Potency | activity change, negative = inhibition
47 | O=C(Nc1ccc(Cc2ccncc2)cc1)C1CCC(N2C(=O)C3CCCCC3C2=O)CC1 (stereo not drawn) | inactive | 
48 | O=C(/C=C/c1ccc2c(c1)OCO2)c1cccnc1 | inconclusive: 50.1 µM [inhibitor, partial curve, poor fit] | 
49 | Nc1ccc(Oc2ccccc2-c2ccccc2)cc1 |  | inactive: 13.7% [at 11.4 µM]
50 | CCN(CC)CCSc1nc2c([nH]1)c(=S)n(C)c(=O)n2C | inconclusive: 44.7 µM [inhibitor, partial curve] | 
51 | Cn1c(SCC(=O)c2cc(Cl)c(Cl)s2)nnc1-c1ccco1 | inconclusive: 7.94 µM [inhibitor, full curve, poor fit] | 
52 | COC(=O)C(C)Oc1cc(OC(C)C(=O)OC)c2c(C)c(Cl)c(=O)oc2c1 (stereo not drawn) | inconclusive: 89.1 µM [inhibitor, single point] | 
53 | O=C(/C=C/Sc1ccccc1)c1ccc(Cl)cc1 | active: 39.8 µM | 
54 | CCC(CC)C(=O)N1N=C(c2ccc(NS(C)(=O)=O)cc2)CC1c1ccccc1 (stereo not drawn) | inconclusive: 39.8 µM [inhibitor, single point] | 
55 | COC(=O)/C=C\C(=O)Nc1cccc([N+](=O)[O-])c1 | inconclusive: 7.08 µM [inhibitor, full curve, poor fit] | 
56 | Cc1cc(C)cc(NC(=O)CSc2ccc(-c3ccco3)nn2)c1 | inactive | 
57 | S=C(Nc1ccccc1)N1N=C(c2cccs2)CC1c1cccs1 (stereo not drawn) | inactive | 
58 | COc1ccccc1N=NC1C(=O)N(C(N)=S)N=C1C (stereo not drawn) | inconclusive: 22.4 µM [inhibitor, single point] | 
59 | Cc1ccnc(NC(c2ccncc2)c2c(C)[nH]c3ccccc23)c1 (stereo not drawn) | inconclusive: 39.8 µM [inhibitor, single point] | 
60 | CC(=O)Nc1sc2c(c1C(c1cccs1)N1CCOCC1)CCCC2 (stereo not drawn) | inconclusive: 4.47 µM [inhibitor, full curve, poor fit] | 
61 | COc1ccc(N/C(=C/[N+](=O)[O-])SC)cc1 | active: 7.08 µM | 
62 | Cc1onc(-c2ccccc2)c1C(=O)NC(=S)Nc1sc2c(c1C#N)CCCC2 | inconclusive: 4.47 µM [inhibitor, partial curve, poor fit] | 
63 | CCn1nc(NC(=O)c2ccncc2)c2cc3ccc(C)cc3nc21 | inconclusive: 20 µM [inhibitor, partial curve, poor fit] | 
64 | O=C(NCc1cccnc1)c1ccc(COc2cccc3ccccc23)o1 | inconclusive: 50.1 µM [inhibitor, partial curve] | 
65 | CCN(CC)Cc1cc(C(C)=O)ccc1OCC(C)C | active: 35.5 µM | 
66 | COc1ccc(OC)c(-c2nnc(-c3ccc(C)o3)o2)c1 | inconclusive: 70.8 µM [inhibitor, single point] | 
67 | Cc1cnc(CNC(=O)CC2C(=O)NCCN2Cc2ccccc2C(F)(F)F)cn1 (stereo not drawn) | inconclusive: 44.7 µM [inhibitor, partial curve] | 
68 | COC1=C/C(=C/c2c(N)n3cc(C)sc3nc2=O)C=CC1=O | inconclusive: 50.1 µM [inhibitor, partial curve, poor fit] | 
